Reference: article PMC4336329 (PLoS ONE, 2015)
About 14,000 (4.5%) of roughly 310,000 compounds showed an effect of 50% or more. The effect is printed as a negative number. The list shows a part of the results.

Target: human ether-à-go-go-related gene (hERG) potassium channel (human, UniProt Q12809)
Assay: primary screen, population patch clamp on CHO cells stably expressing hERG
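Also: peak tail current of the secondary pulse compared with the same well before compound.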

Chain of human ether-à-go-go-related gene (hERG) potassium channel (Q12809 whole entry, looked up): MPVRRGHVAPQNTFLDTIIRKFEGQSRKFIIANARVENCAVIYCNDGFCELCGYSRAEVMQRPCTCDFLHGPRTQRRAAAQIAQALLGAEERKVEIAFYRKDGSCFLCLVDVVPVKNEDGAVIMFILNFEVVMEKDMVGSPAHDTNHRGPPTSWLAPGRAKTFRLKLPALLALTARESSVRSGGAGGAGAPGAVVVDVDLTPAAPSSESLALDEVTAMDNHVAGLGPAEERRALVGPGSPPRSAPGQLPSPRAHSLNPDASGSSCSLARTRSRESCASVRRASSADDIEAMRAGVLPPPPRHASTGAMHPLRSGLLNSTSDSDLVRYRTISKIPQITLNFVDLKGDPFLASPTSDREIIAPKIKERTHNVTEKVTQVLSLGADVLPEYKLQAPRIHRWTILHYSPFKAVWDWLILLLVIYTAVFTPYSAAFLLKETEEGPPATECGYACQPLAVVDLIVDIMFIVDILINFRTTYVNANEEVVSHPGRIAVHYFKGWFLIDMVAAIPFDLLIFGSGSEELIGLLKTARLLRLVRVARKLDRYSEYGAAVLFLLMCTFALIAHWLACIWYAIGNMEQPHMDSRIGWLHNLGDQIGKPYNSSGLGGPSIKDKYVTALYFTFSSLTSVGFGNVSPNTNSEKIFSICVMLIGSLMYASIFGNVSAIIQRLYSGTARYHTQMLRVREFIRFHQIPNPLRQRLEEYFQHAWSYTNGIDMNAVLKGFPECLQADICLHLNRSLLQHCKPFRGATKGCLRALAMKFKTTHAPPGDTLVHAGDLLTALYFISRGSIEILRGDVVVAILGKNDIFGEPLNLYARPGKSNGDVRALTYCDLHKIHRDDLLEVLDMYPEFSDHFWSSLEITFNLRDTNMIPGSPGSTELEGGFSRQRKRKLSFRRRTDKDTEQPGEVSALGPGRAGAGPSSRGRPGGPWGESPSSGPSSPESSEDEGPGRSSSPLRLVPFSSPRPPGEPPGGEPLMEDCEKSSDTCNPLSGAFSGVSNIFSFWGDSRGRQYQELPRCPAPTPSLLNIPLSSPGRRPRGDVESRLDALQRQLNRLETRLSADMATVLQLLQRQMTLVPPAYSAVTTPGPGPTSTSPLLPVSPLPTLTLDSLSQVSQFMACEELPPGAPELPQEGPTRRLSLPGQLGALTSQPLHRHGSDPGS

Compound	hERG current change (%, negative = inhibition) at 10uM
NS(=O)(=O)c1ccc(NC(=S)NCc2ccco2)cc1	12.5%
CCOc1c(Br)cc(CNc2ccc(N3CCOCC3)cc2)cc1OC	19.8%
Cc1ccc(CN=Cc2[nH]c3ccc(Br)c(Cl)c3c2O)cc1	10.4%
COc1ccc2c(c1)CCCC21NC(=O)N(CC(=O)NC(=O)NCc2ccccc2)C1=O (centres unmarked)	9.12%
CCOc1ccc([C@@H]2CC=C(C(=O)O)[C@H](c3ccc(F)cc3)N2S(=O)(=O)c2ccc(C)cc2)cc1	16.7%
CCc1ccc(-c2cc(-c3n[nH]c(=S)n3CC)c3ccccc3n2)cc1	2.2%
Cc1ccc(N(CC(=O)NCc2ccccc2)S(=O)(=O)c2c(C)noc2C)cc1	15.2%
Cc1ccc(C(=O)CN2C(=O)NC3(CCOc4ccccc43)C2=O)s1 (centres unmarked)	-12.2%
COc1ccc(NS(=O)(=O)c2cccc(C(=O)NNC(=O)c3cc(S(N)(=O)=O)ccc3OC)c2)cc1	-1.5%
O=S(=O)(NC(=NCCc1ccc(Cl)cc1)c1ccccc1Cl)c1cccs1	0.244%
Cc1cccc(C)c1OCc1nc2ccccc2c(=O)n1/N=C/c1ccc(OCC(=O)O)cc1	7.75%
CN(CC(=O)Nc1ccc(Cl)c(C(F)(F)F)c1)C(=O)c1cccc(N2C(=O)CCC2=O)c1	-20.5%
CCC1(CC)Cc2ccccc2-c2nc(-c3ccccc3)oc(=O)c21	14.5%
COc1ccc(C(=O)N2CC(=O)Nc3ccccc32)cc1S(=O)(=O)N1CCOCC1	6.04%
Cc1ccc(NC(=O)C2CCN(S(=O)(=O)c3ccccc3)CC2)cc1	-15.4%
COc1cc(/C=N/NC2=NC(C)(C)Cc3ccccc32)cc(OC)c1OC	-4.24%
COc1ccc(NC(=O)CN2CCN(CC(=O)Nc3ccccc3F)CC2)c(OC)c1	-63.5%
COc1ccc(-n2c(=O)c(CCC(=O)N(C)Cc3ccccc3C)nc3ccccc32)cc1	-50.4%
C=C1CCN([C@H](C(=O)NCc2cc(OC)c(OC)c(OC)c2)C(C)C)S(=O)(=O)c2ccccc21	0.512%
CCC(C)(C)C1CCc2c(sc(NC(=O)c3ccoc3C)c2C(N)=O)C1 (centres unmarked)	17.8%
COC(=O)C1=C(C)N(C)C(=O)NC1c1ccccc1 (centres unmarked)	-5.95%
Cc1ccc(C2C(C(=O)O)c3ccccc3C(=O)N2C)c(C)c1 (centres unmarked)	-12.1%

Compound	hERG current change (%, negative = inhibition) at 10uM
COc1ccc2nc(NCCNC(=S)NCCCN3CCOCC3)c(C#N)cc2c1	-4.46%
CN(C)CCNc1oc(-c2ccccc2F)nc1C#N	-10.7%
Cc1sc(NC(=O)CSc2nnnn2C2CCCC2)c(C#N)c1C	-0.024%
CCOc1ccc(NC(=O)c2c3c(nc4ccccc24)CCC3)cc1	8.95%
COc1ccc(-c2cc(=O)c3ccccc3[nH]2)cc1	9.89%
NC(=O)NCc1cccc(Cl)c1	12.3%
O=S(=O)(NCc1ccccc1)c1cccs1	-0.117%
CC(CCc1ccccc1)NC(=O)N1CCOCC1 (centres unmarked)	-7.1%
S=C1NC2=C(CCCC2=C2SCCCS2)C(c2ccccc2)N1 (centres unmarked)	13.9%
Cc1ccc(CNC(=O)CN(C2CCCCC2)S(C)(=O)=O)cc1	-12.4%
Cc1ccc2[nH]c(=O)c(CN(CCO)Cc3nnnn3CCc3ccccc3)cc2c1	-26.2%
NC(=O)CC(NC(=O)c1cccc(Br)c1)c1ccc(N2CCCCCC2)c([N+](=O)[O-])c1 (centres unmarked)	-14.1%
COc1ccc(-c2cc(-n3c(C(F)(F)F)nc4ccccc43)n(CCC#N)n2)cc1	13.2%
CCCC(C)C1C(C#N)=C(N)Oc2c1c(=O)oc1ccccc21 (centres unmarked)	-2.94%
O=C(CCNC(=O)c1ccc(Br)cc1)NC1CCCc2ccccc21 (centres unmarked)	-11.3%
COC(=O)c1c(-c2ccccc2)nn(-c2ccccc2)c1C(=O)OC	13.6%
COc1ccc(C2/C(=C(\O)c3ccc4c(c3)OCCO4)C(=O)C(=O)N2CCCN(C)C)cc1 (centres unmarked)	17%
Cc1ccc2c(c1)C(c1ccc(O)cc1)(c1ccc(O)cc1)C(=O)N2C	4.27%
COCCN1CCn2c(nc3cc(NC(=O)c4ccc(OC)cc4)ccc32)C1	-13.8%
NS(=O)(=O)c1cccc(NC(=O)C2CC(=O)N(Cc3ccco3)C2)c1 (centres unmarked)	11.8%
O=C1C(=O)c2c(C(=O)c3ccccc3)coc2-c2ccccc21	-27.3%
Cn1nc(C(F)(F)F)c(/C=N/OC(=O)c2ccc(Cl)cc2)c1Cl	14.4%

Compound	hERG current change (%, negative = inhibition) at 10uM
CCCc1[nH]n(-c2ccc([N+](=O)[O-])cc2)c(=O)c1C=NCCN1CCNCC1	-47.1%
O=C(CSc1nc2ccccc2s1)c1ccc(O)cc1O	13.4%
O=C(CN1CCN(S(=O)(=O)c2ccc(Cl)cc2)CC1)NCc1cccs1	-59.1%
CCCCNC(=O)CCn1c(=O)c2ccccc2n(CC(=O)NCCc2ccc(OC)c(OC)c2)c1=O	-11.3%
Cc1cc(-c2nc3cccnc3s2)ccc1NS(=O)(=O)c1cccs1	5.53%
CCCCOc1ccc(NC(=O)Cn2c(=O)ccc3c(C)cc(C)nc32)cc1	9.08%
Cc1ccc(S(=O)(=O)N2CC(C(=O)O)Oc3ccccc32)cc1 (centres unmarked)	9.17%
COc1ccccc1NC(=O)c1ccc(S(=O)(=O)N2CCCC2)cc1	-20.3%
COc1ccc(NC(=S)NCc2cccn2C)cc1	3.27%
Cc1ccc(C(=O)N/C(=C\c2ccccc2)C(=O)OCc2ccccc2)cc1	-50.7%
Cc1cc(C(=O)Nc2ccc(C(=O)O)cc2)c(C)o1	23.9%
CC(C#Cc1c([C@@H](C)Oc2ccccc2)nnn1Cc1ccccc1)Oc1ccccc1 (some centres unmarked)	6.98%
Cc1nc2ccccc2nc1OCc1cccc(Cl)c1	-12%
CCn1c(SCC(=O)NCc2cccs2)nnc1-c1ccco1	7.51%
Cc1c(Cl)cccc1NC(=O)CS(=O)(=O)c1ccccc1	13.6%
COc1ccc2nc(SCC(=O)Nc3ccc4c(c3)OCCO4)[nH]c2c1	-19.5%
CCO[C@H]1OC(C(=O)N2CCN(Cc3ccc4c(c3)OCO4)CC2)=C[C@@H](c2ccc(Br)cc2)[C@@H]1CCCO	-20.1%
O=C(NCCC1CCCCN1S(=O)(=O)c1ccc(F)cc1)C(=O)NC1CCCC1 (centres unmarked)	-49.7%
O=C(c1ccc2c(c1)OCO2)C1CCCN(C(=O)NCc2ccccc2)C1 (centres unmarked)	-14.3%
CCc1ccccc1NC(=O)c1ccc([N+](=O)[O-])s1	-8.62%
COc1ccc(-c2[nH]ncc2CNCc2cc(C)n(C)n2)c(F)c1	10.9%
CC1(C)NC(=O)N(CC(O)CN2C(=O)CCC2=O)C1=O (centres unmarked)	-7.16%

Compound	hERG current change (%, negative = inhibition) at 10uM
O=C(C(=O)N1CCN(Cc2ccc3c(c2)OCO3)CC1)c1c[nH]c2ccccc12	-11.6%
CC(C)(C)c1cc(CCC(=O)NCc2cccnc2)cc(C(C)(C)C)c1O	-1.67%
CS(=O)(=O)N(CC(=O)NC1CCCCCC1)Cc1ccc(Cl)cc1	0.169%
S=c1nc(Cc2ccc(Cl)cc2)[nH]c2ccccc12	25.6%
C/C(N)=C(/C#N)C(=O)CSc1nc2cc(Cl)ccc2c(=O)n1-c1ccc(C)cc1	18.1%
Clc1ccccc1CNc1ncnc2nc[nH]c12	0.586%
O=C(CCS(=O)(=O)c1ccccc1)NC1CCCCC1	28%
Cn1c(O)c(/C=N/N2CCOCC2)c(=O)[nH]c1=S	18.1%
CCC1Oc2ccc(C)cc2N(CC(=O)N(Cc2cccnc2)Cc2cccc(F)c2)C1=O (centres unmarked)	4.55%
On1cnnc1-c1ccccc1	8.89%
COc1ccc(C)cc1N(C(=O)c1ccco1)C(C(=O)NC1CCCC1)c1cc(OC)c(OC)c(OC)c1 (centres unmarked)	1.92%
COc1ccccc1OCCSc1nc2ccccc2n1CCO	12.3%
CCOc1ccc(N2CC(C(=O)Nc3cccc(C)c3C)CC2=O)cc1 (centres unmarked)	5.18%
Cc1ccc(S(=O)(=O)N2CCC(C(=O)OCC(=O)N3CCc4ccccc43)CC2)cc1	-25.4%
CCCCn1c(/N=C/c2ccccc2NS(=O)(=O)c2ccc(C)cc2)nc2ccccc21	-19%
COC(=O)C1=C(c2c(C)noc2C)C[C@@H]2CC[C@H]1N2C(=O)NCc1ccc2c(c1)OCO2	-13.8%
COC(=O)c1cccc(C(=O)N2CCC(CCC(=O)NCc3ccc(F)cc3)CC2)c1	-30.6%
COc1ccc(CCNC(=O)C2CCN(S(=O)(=O)c3cnc[nH]3)CC2)cc1OC	13.7%
Cc1cc(/C=N/O)c(C)n1-c1cccc(Cl)c1	-7.5%
CC(C)C(=O)N1CCN(c2ccc(NC(=O)COc3ccccc3[N+](=O)[O-])cc2)CC1	2.38%
